# PubChem BioAssay AID2202238 (Ras Initiative Chemistry Research Team, Frederick National …, 2025)
# Fewer than 10 of roughly 2,200 compounds were called active. The list shows a part of the results. The source made no clear call on entries shown without one.
# Biological target: GTPase KRas (Homo sapiens) (UniProt P01116)
# Assay: Fragment capture on engineered cysteines, share of protein labelled (AID 2202238)
# Parameters: protein at 5 µM with 500 µM competing thiol for 1.5 h
# Details: KRAS G12D cysteine mutants, disulfide tethering, MALDI-TOF labeling; stronger effect = higher value; H27C mutant labeling; fragment at 500 µM
# Sequence of UniProt P01116 (P01116 whole entry, looked up, the tested form may be a part): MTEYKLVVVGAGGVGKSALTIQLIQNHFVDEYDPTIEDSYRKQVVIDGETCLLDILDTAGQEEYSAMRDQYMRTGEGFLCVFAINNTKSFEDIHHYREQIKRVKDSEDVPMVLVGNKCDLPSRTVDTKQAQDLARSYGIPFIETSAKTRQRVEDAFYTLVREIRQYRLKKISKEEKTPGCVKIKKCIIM
row,SMILES,percent labeling [%]
1,O=C(CCS)NC1(c2ccc(F)cn2)CC1,38.7
2,COc1ccc(-c2csc(CCNC(=O)CCS)n2)cc1,30.9
3,O=C1C[C@H](C(=O)NCCS)C[C@H](c2ccccc2)N1,42.3
4,O=C(Cc1ccccc1C(=O)NCCS)Nc1cccnc1,34.5
5,Cc1cc(C)c2c(OCC(=O)NCCS)nn(C)c2n1,35.5
6,O=C(NCCS)C1(c2cc(Cl)ccc2F)CCC1,28.7
7,CC(=O)NCC1(CC(=O)NCCS)CCCCC1,32.4
8,Cc1cc(C(=O)NCCS)nc2[nH]c(=O)[nH]c(=O)c12,34.1
9,Cc1nn(CC(F)F)cc1NC(=O)CCS,37.3
10,Cc1ccc(-c2csc(C(=O)NCCS)c2-n2cccc2)cc1,24.6
11,CC(C)NC(=O)c1cnn2c1CC(CNC(=O)CCS)CC2 (stereo not given),35.9
12,O=C(CCS)NC(c1ccccc1)c1ccccc1,30.7
13,O=C(NCCS)c1ccc(-c2cccc(OC(F)(F)F)c2)s1,5.2
14,O=C(NCCS)c1ccc(F)cc1Cl,39.9
15,O=C(NCCS)c1cccc(I)c1,38.8
16,O=C(CCS)N1CCC(c2cc(=O)[nH]c(=O)[nH]2)C1 (stereo not given),35.5
17,Cc1cnc(C(C)(C)NC(=O)CCS)s1,33.2
18,O=C(NCCS)C1CC(OCc2ccccc2)C1 (stereo not given),31.2
19,Cn1[nH]c(=O)c2c(C(=O)NCCS)cc(C3CC3)nc21,23
20,O=C(CCS)Nc1cc(Cl)c2c(c1)OCCO2,32.6
21,O=C(NCCS)C(=O)c1c[nH]c2ccccc12,19.1
22,O=C(CCS)NCC1c2ccccc2C(=O)N1Cc1ccccc1 (stereo not given),25.9
23,Cc1ccc(-c2nc(C(=O)NCCS)cs2)n1C,23.4
24,CCN(CC1CCC(C(=O)OC)CC1)C(=O)CCS (stereo not given),42.2

row,SMILES,percent labeling [%]
1,Nc1ncnc2c1ncn2CCC(=O)NCCS,25.6
2,O=C(CCS)NC1Cc2cc(Br)cnc2NC1=O (stereo not given),47.6
3,CC(C)Oc1cc(CN(C(=O)CCS)C2CC2)ccn1,39.2
4,Cc1cc(=O)[nH]c2cc(C(=O)NCCS)ccc12,28.8
5,O=C(NCCS)c1cc2ccccc2cc1O,23
6,Cn1c(-c2ccccc2)c(C(=O)NCCS)c2ccccc21,37.3
7,O=C(NCCS)C1CC(O)CN1C(=O)Cc1ccccc1F (stereo not given),31.8
8,CC(C)(C)OC(=O)NC1CCC2(CC1)CN(C(=O)CCS)CCO2 (stereo not given),30.1
9,Cc1ccc(S(=O)(=O)C2CCN(C(=O)CCS)CC2)cc1,44.2
10,O=C(CCS)NC1CCN(CC(=O)N2CCOCC2)CC1,18.3
11,Cc1cc(=O)n(CCNC(=O)CCS)cn1,24.5
12,O=C(COc1ccc2c3c(c(=O)oc2c1)CCC3)NCCS,21.7
13,Cc1cc(C2(NC(=O)CCS)CCOCC2)on1,40.2
14,O=C(NCCS)c1cn2c(n1)CCCC2,37.7
15,O=C(Cc1c(Cl)cccc1Cl)NCCS,33
16,O=C(CCS)NCc1ccc2c(c1)C(=O)NC2,34.3
17,O=C(CCS)Nc1cccc(-c2ncc3n2CCCC3)c1,49.1
18,O=C(CCS)Nc1cccn(CCCn2ccnc2)c1=O,44.6
19,Cc1cc(NC(=O)C2CC2)sc1C(=O)NCCS,38
20,O=C(CCc1ccc(-c2ccccc2)o1)NCCS,19.9
21,Cc1ccc(-c2nc(CC(=O)NCCS)cs2)cc1,26.7
22,O=C(CCCn1ccc2cc(Cl)ccc21)NCCS,23.1
23,O=C(NCCS)c1cc(Cl)ccc1-n1cnnn1,31.7
24,CC1(C)Cc2cccc(NC(=O)CCS)c2O1,35.9

row,SMILES,percent labeling [%]
1,COC(=O)c1ccc(CN(C)C(=O)CCS)nc1,32.4
2,O=C(N[C@@H](Cc1cnc[nH]1)C(=O)NCCS)C1CCCCC1,31.5
3,Cc1cc(C(=O)NCCS)cc(NCC(F)(F)F)n1,47.1
4,CN1CCC(n2nccc2NC(=O)CCS)CC1,40
5,O=C(NCCS)c1ccc2scc(Br)c2c1,39.5
6,O=C(CCS)NC1(c2ccc(F)cc2)CCOCC1,39.6
7,O=C(CCS)N1CCC(N2CC(O)C2)CC1,40.3
8,Cc1c(C2CC2)nc2ccc(Br)cc2c1C(=O)NCCS,19.2
9,O=C(CCS)N1CCOc2c(Cl)cc(Br)cc2C1,28.6
10,CCN1CCC(N(C)C(=O)CCC(=O)NCCS)CC1,39.3
11,O=C(CCS)NCC1CCC(c2ccccc2)CC1 (stereo not given),27.5
12,CC(C)c1nc(Cn2cc(C(=O)NCCS)ccc2=O)cs1,31.2
13,Cc1nn(Cc2ccccc2)c2ncc(NC(=O)CCS)cc12,29.3
14,CNC(=O)Cn1ccc(NC(=O)CCS)n1,36.6
15,CN(C(=O)CCS)C1CCN(c2ccccc2)CC1,33.1
16,COc1cccc(C2C(c3ccccc3)CCN2C(=O)CCS)c1 (stereo not given),24.3
17,O=C(NCCS)c1ccnn1CCC(F)(F)F,35.4
18,O=C(NCCS)C1(c2ccc(Cl)cc2)CCCC1,29
19,CN(C(=O)C1CCCN(C(=O)CCS)C1)c1ccccn1 (stereo not given),41.8
20,O=C(CCS)NCc1n[nH]c(=O)n1C1CC1,35.5
21,Cc1cnn(-c2ccc(C(=O)NCCS)cc2)c1,19.2
22,O=C(CCS)Nc1cccc(-n2nn[nH]c2=O)c1,20.5
23,O=C(CCS)NCCOc1ccc(Cl)c(Cl)c1,35.7
24,O=C(CCS)Nc1cnn(-c2ncccc2Cl)c1,44

row,SMILES,percent labeling [%]
1,O=C(NCCS)c1sccc1-n1ccnn1,42.9
2,Cc1c(NC(=O)CCS)c(=O)n(C2CCCCC2)n1C,29.7
3,CCC1(C(=O)NCCS)CCN(C(=O)c2ccccc2)CC1,35.5
4,O=C(CCS)NC(Cn1ccnc1)c1ccccc1 (stereo not given),36.8
5,Cc1nc(N2CCOCC2)sc1CN(CC1CN(C)CCO1)C(=O)CCS (stereo not given),33.5
6,O=C(CCS)NCCCN1C(=O)NC2(CCC2)C1=O,34.5
7,Cn1c(CNC(=O)CCS)nnc1C1CC1,27.8
8,O=C(CCS)N1CCC2(CC1)CC2c1nc(-c2cccc(Cl)c2)no1 (stereo not given),33.4
9,O=C(Cc1cnn(-c2ccccc2)c1)NCCS,27.7
10,CCC(C)C(NC(=O)Nc1cc(C)ccc1C)C(=O)NCCS (stereo not given),8.4
11,CN(CC(=O)NCCS)c1ccc(C#N)cc1F,33
12,O=C(CCS)Nc1ccc2c(n1)OCCO2,48.2
13,N#CC1CN(C(=O)CCS)CC12C(=O)Nc1ccccc12 (stereo not given),47.4
14,O=C(CCS)NCCNC(=O)c1ccc(F)cc1,29.4
15,O=C(NCCS)c1c(Cl)cccc1OCC1CC1,28.2
16,CCOc1cccc2[nH]c(C(=O)NCCS)cc12,33
17,CN(C)Cc1nnc(C2CCCCN2C(=O)CCS)o1 (stereo not given),36.6
18,O=C(NCCS)C(c1ccccc1)n1sc2ccccc2c1=O (stereo not given),29.2
19,O=C(CCCc1ccc2c(c1)OCCCO2)NCCS,37.4
20,O=C(CCS)Nc1ccnn1Cc1ccc(Br)s1,42.2
21,CCN1C(=O)CO[C@H](C(=O)NCCS)[C@H]1c1ccccc1,28.4
22,CCC(C)C(=O)N1Cc2ccccc2CC1C(=O)NCCS (stereo not given),23.4
23,CCc1nnc(NC(=O)C(C)C(C)NC(=O)CCS)s1 (stereo not given),35.9
24,O=C(Cc1cc(Cl)cc2c1OCC2)NCCS,30.4

row,SMILES,percent labeling [%]
1,O=C(NCCS)C1CCCn2cc(C(F)(F)F)nc21 (stereo not given),34.7
2,O=C(NCCS)C1(C2CCOCC2)CC1(F)F (stereo not given),23.9
3,CCc1nc(-c2ccc(C(=O)NCCS)cc2)n[nH]1,42.6
4,O=C(CCS)N1CCC(CCN2CCCS2(=O)=O)CC1,46.8
5,CCn1nccc1[C@@H]1OCC[C@H]1C(=O)NCCS,26.1
6,O=C(CCS)N1CCn2c(Cc3ccccc3F)nnc2C1,36.1
7,O=C(Cc1ccc(OCc2ccccn2)cc1)NCCS,40.6
8,CC1(C(=O)NCCS)CCCN1C(=O)c1ccccc1 (stereo not given),38
9,N#Cc1nc(-c2ccco2)oc1N1CCC(C(=O)NCCS)CC1,23.1
10,O=C(NCCS)c1nccnc1-c1nc2ccccc2s1,29.1
11,Cc1cc(C2(C(=O)NCCS)CCOCC2)on1,35
12,O=C(NCCS)C1CCN(c2ccccc2F)C1 (stereo not given),31.2
13,Cn1ccc(C2CCN(C(=O)CCS)CC2)n1,40.8
14,O=C(NCCS)c1cnoc1-c1cccs1,12.5
15,O=C(CCCc1ccc2c(c1)CC(=O)N2)NCCS,36.1
16,O=C(CCS)NCc1nc(-c2ccc(F)cc2)n[nH]1,39.1
17,O=C(CCS)NCc1nc(C(F)(F)F)n2c1CCCC2,40.6
18,O=C(NCCS)c1ccc(Oc2cc(Cl)ccc2Cl)cc1,35.8
19,CN(C)C1CC2(CC(NC(=O)CCS)C2)C1 (stereo not given),55.2
20,O=C(NCCS)C(c1ccccc1)N1CCc2ccccc21 (stereo not given),14.8
21,Cc1c(CN(CC(F)F)C(=O)CCS)cnn1C,36.8
22,O=C(NC1(C(=O)NCCS)CCCC1)c1n[nH]c2ccccc12,26.8
23,Cc1nc(CN2CCC(C(=O)NCCS)CC2)cs1,46.4
24,CCOc1cc2c(c3[nH]c(C(=O)NCCS)cc13)OC(C)C2 (stereo not given),22.6

row,SMILES,percent labeling [%]
1,COC(=O)C1(C2=CCN(C(=O)CCS)CC2)CC1,27.3
2,NC(=O)c1ccc(N2CCN(C(=O)CCS)CC2)nc1,50.9
3,O=C(NCCS)c1cc2cccc(Cl)c2o1,30.2
4,CC1(C)C(=O)Nc2cc(C(=O)NCCS)ccc21,50.1
5,Cc1nc2cc(C(=O)NCCS)ccc2n1Cc1ccsc1,32.6
6,O=C(Cc1ccccc1Br)NCCS,35.7
7,O=C(NCCS)C1CCc2nc[nH]c2C1 (stereo not given),49.4
8,O=C(CCS)NCCc1noc(COc2ccc(Cl)cc2)n1,34.6
9,O=C(NCCS)c1cccn1CCN1CCOCC1,41.2
10,O=C(NC(Cc1ccccc1)C(=O)NCCS)c1ccccc1 (stereo not given),23.1
11,CN(C(=O)CNC(=O)CCS)C1CCCCC1,24.9
12,O=C(CCS)NCC12COCCN1C(=O)COC2 (stereo not given),27.9
13,CN1CCN(c2nccnc2CNC(=O)CCS)CC1=O,25.5
14,COc1ccccc1Cc1noc(C2CCN(C(=O)CCS)CC2)n1,33.6
15,O=C(NCCS)[C@H]1CCCN1C(=O)c1ccccc1,33.8
16,Cc1cnc(C2CCN(C(=O)CCS)CC2)s1,44
17,CS(=O)(=O)c1cccc(C(NC(=O)CCS)c2ccc(F)cc2F)c1 (stereo not given),31.9
18,O=C(CC1CN(Cc2ccccc2)CCO1)NCCS (stereo not given),41.2
19,O=C(COc1c(Cl)cccc1Cl)NCCS,40.5
20,Cc1sc2nc(CN3CCN(C(=O)CCS)CC3)[nH]c(=O)c2c1C,35.6
